Source: the supplement of paper PMC8728848
This is one part of the list.

Columns and labels:
Assay in all cases: glycan array binding signal (z-score within array); higher = stronger binding
Conditions in all cases: glycan notation: IUPAC condensed, linker removed
Fuc(a1-2)Gal = biological target: Fuc(a1-2)Gal
How it was run: (§1)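 The binding signal is a Z-score computed within each array and averaged over linkers. Arrays of the same protein sequence at different concentrations or buffers were also averaged together. Data originate from 3228 arrays in the Consortium for Functional Glycomics database, kept only where the protein sequence was available.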

Fuc(a1-2)Gal(b1-3)GalNAc = biological target: Fuc(a1-2)Gal(b1-3)GalNAc
How it was run: as §1

[1] = biological target: Fuc(a1-2)Gal(b1-3)GalNAc(b1-3)Gal
How it was run: as §1

[2] = biological target: Fuc(a1-2)Gal(b1-3)GalNAc(b1-3)Gal(a1-4)Gal(b1-4)Glc
How it was run: as §1

[3] = biological target: Fuc(a1-2)Gal(b1-3)GalNAc(b1-3)Gal(b1-4)Glc
How it was run: as §1

[4] = biological target: Fuc(a1-2)Gal(b1-3)GalNAc(b1-4)[Neu5Ac(a2-3)]Gal(b1-4)Glc
How it was run: as §1

[5] = biological target: Fuc(a1-2)Gal(b1-3)[Fuc(a1-4)]GlcNAc
How it was run: as §1

Fuc(a1-2)Gal(b1-4)Glc = biological target: Fuc(a1-2)Gal(b1-4)Glc
How it was run: as §1

Fuc(a1-2)Gal(b1-4)GlcNAc = biological target: Fuc(a1-2)Gal(b1-4)GlcNAc
How it was run: as §1

[6] = biological target: Fuc(a1-2)Gal(b1-4)GlcNAc(b1-3)Gal(b1-4)GlcNAc
How it was run: as §1

[7] = biological target: Fuc(a1-2)Gal(b1-4)GlcNAc(b1-3)Gal(b1-4)GlcNAc(b1-3)Gal(b1-4)GlcNAc
How it was run: as §1

[8] = biological target: Fuc(a1-2)Gal(b1-4)[Fuc(a1-3)]GalNAc(b1-3)Gal(b1-4)[Fuc(a1-3)]GlcNAc
How it was run: as §1

[9] = biological target: Fuc(a1-2)Gal(b1-4)[Fuc(a1-3)]GalNAc(b1-3)Gal(b1-4)[Fuc(a1-3)]GlcNAc(b1-3)Gal(b1-4)[Fuc(a1-3)]GalNAc
How it was run: as §1

[10] = biological target: Fuc(a1-2)Gal(b1-4)[Fuc(a1-3)]GlcNAc
How it was run: as §1

Fuc(a1-2)GlcNAc = biological target: Fuc(a1-2)GlcNAc
How it was run: as §1

Fuc(a1-2)[Gal(a1-3)]Gal = biological target: Fuc(a1-2)[Gal(a1-3)]Gal
How it was run: as §1

[11] = biological target: Fuc(a1-2)[Gal(a1-3)]Gal(b1-3)GlcNAc
How it was run: as §1

[12] = biological target: Fuc(a1-2)[Gal(a1-3)]Gal(b1-4)Glc
How it was run: as §1

[13] = biological target: Fuc(a1-2)[Gal(a1-3)]Gal(b1-4)GlcNAc
How it was run: as §1

[14] = biological target: Fuc(a1-2)[Gal(a1-3)]Gal(b1-4)[Fuc(a1-3)]GlcNAc
How it was run: as §1

[15] = biological target: Fuc(a1-2)[Gal(a1-4)]Gal(b1-4)GalNAc
How it was run: as §1

[16] = biological target: Fuc(a1-2)[GalNAc(a1-3)]Gal
How it was run: as §1

[17] = biological target: Fuc(a1-2)[GalNAc(a1-3)]Gal(b1-3)GlcNAc
How it was run: as §1

[18] = biological target: Fuc(a1-2)[GalNAc(a1-3)]Gal(b1-4)Glc
How it was run: as §1

[19] = biological target: Fuc(a1-2)[GalNAc(a1-3)]Gal(b1-4)GlcNAc
How it was run: as §1

[20] = biological target: Fuc(a1-2)[GalNAc(a1-3)]Gal(b1-4)[Fuc(a1-3)]GlcNAc
How it was run: as §1

[21] = biological target: Fuc(a1-2)[GalNAc(a1-4)]Gal(b1-4)GlcNAc
How it was run: as §1

Fuc(a1-3)GlcNAc = biological target: Fuc(a1-3)GlcNAc
How it was run: as §1

[22] = biological target: Fuc(a1-3)[Gal(b1-4)]GlcNAc
How it was run: as §1

[23] = biological target: Fuc(a1-3)[Gal(b1-4)]GlcNAc(b1-4)Gal(b1-4)[Fuc(a1-3)]GlcNAc
How it was run: as §1

[24] = biological target: Fuc(a1-3)[Gal(b1-4)]GlcNAc(b1-4)Gal(b1-4)[Fuc(a1-3)]GlcNAc(b1-4)Gal(b1-4)[Fuc(a1-3)]GlcNAc
How it was run: as §1

[25] = biological target: Fuc(a1-3)[Gal3S(b1-4)]GlcNAc
How it was run: as §1

[26] = biological target: Fuc(a1-3)[GalNAc(b1-4)]Gal(b1-4)GlcNAc
How it was run: as §1

Fuc(a1-4)GlcNAc = biological target: Fuc(a1-4)GlcNAc
How it was run: as §1

Fuc(b1-3)GlcNAc = biological target: Fuc(b1-3)GlcNAc
How it was run: as §1

Gal(a1-2)Gal = biological target: Gal(a1-2)Gal
How it was run: as §1

Gal(a1-3)Gal = biological target: Gal(a1-3)Gal
How it was run: as §1

Gal(a1-3)Gal(b1-3)Glc = biological target: Gal(a1-3)Gal(b1-3)Glc
How it was run: as §1

Gal(a1-3)Gal(b1-3)GlcNAc = biological target: Gal(a1-3)Gal(b1-3)GlcNAc
How it was run: as §1

Gal(a1-3)Gal(b1-4)GlcNAc = biological target: Gal(a1-3)Gal(b1-4)GlcNAc
How it was run: as §1

[27] = biological target: Gal(a1-3)Gal(b1-4)[Fuc(a1-3)]GalNAc
How it was run: as §1

Gal(a1-3)GlcNAc = biological target: Gal(a1-3)GlcNAc
How it was run: as §1

[28] = biological target: Gal(a1-3)[Gal(a1-4)]Gal(b1-4)GlcNAc
How it was run: as §1

Gal(a1-4)Gal(b1-4)Gal = biological target: Gal(a1-4)Gal(b1-4)Gal
How it was run: as §1

Gal(a1-4)Gal(b1-4)GalNAc = biological target: Gal(a1-4)Gal(b1-4)GalNAc
How it was run: as §1

B1: 7WC (Trifolium repens) (protein)
chain: MGTITSYAVVFDAGSTGSRVHVYHFDQNLDLLHIGKDVEFYNKIQPGLSAYADNPEQAAKSLIPLLEQAENVVPEDFHSKTPIRLGATAGLRLLDGDASERILQAVRDMLNNKSTFNVQPDAVSIIDGTQEGSYLWVTINYVLGNLGKRFTNTVGVIDLGGGSVQMAYAVSKKTARNAPKVTDGEDPYIKKIVLKGKPYDLYVHSYLHFGREASRAEILKVTHGSASPCILAGFDGIYTYSGEEFKASAPTSGANFDKCKKIIQKALKLDYPCPYQNCTFGGIWNGGGGSGQKKLFAASSFFYLPQDVGMVDPNKSNLKLRPVDLENKAKIVCTLNVEDVKSAYPLLEKFNIVPYACMDLIYQYELLVDGFGLDPLQEITAGEKIEYQEALVDAAWALGNAVEAVLLLPKFERLMYFVVEHHHHHH
Fuc(a1-2)Gal
  glycan array binding signal (z-score): -0.33
Fuc(a1-2)Gal(b1-3)GalNAc
  glycan array binding signal (z-score): -0.345
[1]
  glycan array binding signal (z-score): -0.476
[2]
  glycan array binding signal (z-score): -0.428
[3]
  glycan array binding signal (z-score): -0.261
[4]
  glycan array binding signal (z-score): -0.411
[5]
  glycan array binding signal (z-score): -0.35
Fuc(a1-2)Gal(b1-4)Glc
  glycan array binding signal (z-score): -0.213
Fuc(a1-2)Gal(b1-4)GlcNAc
  glycan array binding signal (z-score): -0.429
[6]
  glycan array binding signal (z-score): -0.484
[7]
  glycan array binding signal (z-score): -0.438
[8]
  glycan array binding signal (z-score): -0.347
[9]
  glycan array binding signal (z-score): 0.143
[10]
  glycan array binding signal (z-score): -0.391
Fuc(a1-2)GlcNAc
  glycan array binding signal (z-score): -0.382
Fuc(a1-2)[Gal(a1-3)]Gal
  glycan array binding signal (z-score): -0.294
[11]
  glycan array binding signal (z-score): -0.338
[12]
  glycan array binding signal (z-score): -0.264
[13]
  glycan array binding signal (z-score): -0.227
[14]
  glycan array binding signal (z-score): -0.4
[15]
  glycan array binding signal (z-score): -0.147
[16]
  glycan array binding signal (z-score): -0.24
[17]
  glycan array binding signal (z-score): -0.374
[18]
  glycan array binding signal (z-score): -0.35
[19]
  glycan array binding signal (z-score): -0.282
[20]
  glycan array binding signal (z-score): -0.306
[21]
  glycan array binding signal (z-score): -0.278
Fuc(a1-3)GlcNAc
  glycan array binding signal (z-score): -0.113
[22]
  glycan array binding signal (z-score): -0.354
[23]
  glycan array binding signal (z-score): 0.351
[24]
  glycan array binding signal (z-score): -0.327
[25]
  glycan array binding signal (z-score): -0.435
[26]
  glycan array binding signal (z-score): -0.112
Fuc(a1-4)GlcNAc
  glycan array binding signal (z-score): -0.573
Fuc(b1-3)GlcNAc
  glycan array binding signal (z-score): -0.302
Gal(a1-2)Gal
  glycan array binding signal (z-score): -0.221
Gal(a1-3)Gal
  glycan array binding signal (z-score): -0.388
Gal(a1-3)Gal(b1-3)Glc
  glycan array binding signal (z-score): -0.298
Gal(a1-3)Gal(b1-3)GlcNAc
  glycan array binding signal (z-score): -0.197
Gal(a1-3)Gal(b1-4)GlcNAc
  glycan array binding signal (z-score): -0.476
[27]
  glycan array binding signal (z-score): -0.377
Gal(a1-3)GlcNAc
  glycan array binding signal (z-score): -0.055
[28]
  glycan array binding signal (z-score): -0.211
Gal(a1-4)Gal(b1-4)Gal
  glycan array binding signal (z-score): -0.302
Gal(a1-4)Gal(b1-4)GalNAc
  glycan array binding signal (z-score): -0.213
